Test results as given in PubChem BioAssay AID360 (National Center for Advancing Translational Sciences (NCATS), 2006).
About 550 (1.1%) of roughly 48,000 compounds were called active. Another 4% or so got no clear call; they are omitted. Cut-off read from the data, not from the text of the source: active = potency below about 15 µM; inconclusive = mostly about 16 µM to 33 µM; inactive = weaker than that. This is one part of the list.

biological target: Lysosomal acid glucosylceramidase (Homo sapiens) (UniProt P04062); test: Glucocerebrosidase; details: purified enzyme, resorufin glucoside fluorescence (screen aimed at inhibitors), 20 min;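 note: the screen sought inhibitors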
Method in brief: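 Normal human glucocerebrosidase (0.2 nM final) was assayed with resorufin β-D-glucopyranoside (30 uM final) in 50mM citric acid/KH2PO4, 10mM sodium taurocholate, 0.01% tween-20, pH 5.9. Compounds were titrated; fluorescence (Ex 548, Em 600) read after 20 min at RT.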
Potency is the fitted concentration of half-maximal effect.

UniProt P04062, sequence (P04062 whole entry, looked up): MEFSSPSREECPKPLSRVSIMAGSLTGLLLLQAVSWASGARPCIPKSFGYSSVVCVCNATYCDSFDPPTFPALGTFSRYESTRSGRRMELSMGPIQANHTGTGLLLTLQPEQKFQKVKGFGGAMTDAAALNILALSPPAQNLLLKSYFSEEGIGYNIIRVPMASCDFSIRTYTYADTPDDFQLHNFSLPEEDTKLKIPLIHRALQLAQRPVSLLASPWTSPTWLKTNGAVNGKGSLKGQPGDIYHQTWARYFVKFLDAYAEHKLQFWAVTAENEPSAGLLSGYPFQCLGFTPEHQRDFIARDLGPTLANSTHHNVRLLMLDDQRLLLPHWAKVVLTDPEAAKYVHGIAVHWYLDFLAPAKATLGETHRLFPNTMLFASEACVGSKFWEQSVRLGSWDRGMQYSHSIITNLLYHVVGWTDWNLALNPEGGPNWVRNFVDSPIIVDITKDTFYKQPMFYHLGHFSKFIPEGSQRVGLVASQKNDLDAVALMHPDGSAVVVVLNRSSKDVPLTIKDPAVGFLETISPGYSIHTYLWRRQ

Potency, inactive:
O=C(Cc1cccs1)Nc1ccccc1C(=O)O > 76.9 µM
Clc1ccccc1CSc1ncccn1 > 76.9 µM
O=C1CCCc2nc(N3CCCCC3)sc21 > 76.9 µM
O=C(O)c1ccccc1C(=O)N1CC=C(c2ccccc2)CC1 > 76.9 µM
CC(C)Sc1nnc([C@H](C)NC(=O)OC(C)(C)C)o1 > 76.9 µM
CCCNS(=O)(=O)c1ccc(NC(=O)c2ccccn2)cc1 > 76.9 µM
COc1ccc(CN(Cc2ccccn2)S(=O)(=O)c2ccc(-n3cnnn3)c(OC)c2)cc1 > 76.9 µM
CCOc1ccc(N2CC(C(=O)Nc3ccc(S(=O)(=O)N4CCOCC4)cc3)CC2=O)cc1 (stereo not given) > 76.9 µM
COC(=O)c1[nH]c2cccc(OC)c2c1NC(=O)CCN1CCC(C)CC1 > 76.9 µM
COc1ccc(COCC(O)CN2CCOCC2)cc1OC (stereo not given) > 76.9 µM
CN1CC(=O)NC1=NC(=O)c1cc(F)c(F)cc1Cl > 76.9 µM
CC(Sc1nnnn1-c1ccccc1)C(=O)Nc1ccc(Cl)cn1 (stereo not given) > 76.9 µM
CC1CCCCC1NC(=O)Cn1[nH]c(=O)c2ccccc2c1=O (stereo not given) > 76.9 µM
CC1=C(C(=O)Nc2cccnc2)C(c2cccnc2)n2nc(-c3cccs3)nc2N1 (stereo not given) > 76.9 µM
c1ccc(-c2nnc(-c3ccco3)n2-c2ccccc2)cc1 > 76.9 µM
O=C(Cc1c(F)cccc1Cl)NCC1CCCO1 (stereo not given) > 76.9 µM
COc1cc(NC(=O)c2ccco2)ccc1NC(=O)c1ccccc1Cl > 76.9 µM
COc1ccc(N(Cc2cc(=O)[nH]c3ccccc23)C(=O)c2ccco2)cc1 > 76.9 µM
Cc1cccc(-c2nnc3sc(-c4ccccc4)nn23)c1 > 76.9 µM
CCCc1[nH]nc2c1C(c1ccccc1OC)C(C#N)=C(N)O2 (stereo not given) > 76.9 µM
Cc1cc(-c2ccccc2)nc(=O)[nH]1 > 76.9 µM
COc1ccc(-n2nc(C(=O)Nc3ccc4c(c3)OCO4)c3ccccc3c2=O)c(OC)c1 > 76.9 µM
Cc1cccc(NC(=O)CSc2nnc([C@@H]3CCCN3C(=O)OC(C)(C)C)o2)c1C > 76.9 µM
CN(CCNC(=O)C1CCN(S(=O)(=O)N2CCOCC2)CC1)CCc1ccccc1 > 76.9 µM
Cn1c(=O)c2c(nc(N3CCCCCC3)n2CC(O)COc2ccc(Cl)cc2)n(C)c1=O (stereo not given) > 76.9 µM
